The values that follow come from the supplement of paper PMC9446081.

SMILES strings stand for the structures. Among all 39,000 compounds or so, about 220 (0.56%) showed activity. Some of the results follow.
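Further: static incubation at 37 °C against the wild-type strain, values averaged over two biological replicates.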

The experiment has as its system Escherichia coli K-12 BW25113. Put plainly: relative growth (OD600 normalised to plate interquartile mean) (fraction); higher = less growth inhibition, active = 0.2 or less. The settings on record: 50 µM; LB; incubation time: overnight (16-24 h).
For the compound `C[C@H](CO)N1C[C@H](C)[C@H](CN(C)Cc2ccccc2)Oc2ccc(NC(=O)Cn3cnnn3)cc2CC1=O`, the relative growth is inactive: 1.03.
As to `C[C@H]1CN([C@@H](C)CO)C(=O)c2cc(NC(=O)Nc3ccc(C(F)(F)F)cc3)ccc2O[C@H]1CN(C)C(=O)Nc1ccccc1`, the relative growth was inactive: 1.06.
In the case of `Cc1ccc(S(=O)(=O)N(C)C[C@@H]2Oc3ccc(NC(=O)Nc4cccc5ccccc45)cc3C(=O)N([C@@H](C)CO)C[C@@H]2C)cc1`, the relative growth is inactive: 1.03.
The same measure for `CSc1ncc(C(=O)NN)n1C`: inactive: 1; for `CN(C)C(=O)C[C@@H]1C=C[C@H](NC(=O)C2CC2)[C@H](CO)O1`: inactive: 1.04; for `C[C@H](CO)N1C[C@H](C)[C@@H](CN(C)C(=O)Nc2ccc3c(c2)OCO3)Oc2cc(C#Cc3ccncc3)ccc2S1(=O)=O`: inactive: 1.05.
For `O=C(C[C@@H]1CC[C@@H]2[C@H](COC[C@H](O)CN2S(=O)(=O)c2cccc(F)c2)O1)NCc1ccc2c(c1)OCO2` the value was inactive: 1.02; for `C[C@H](CO)N1C[C@H](C)[C@H](CN(C)S(=O)(=O)c2ccc(Oc3ccccc3)nc2)OCc2cn(nn2)CCCC1=O`, inactive: 0.968; for `C[C@@H]1CCCCO[C@H](CN(C)Cc2ccc(Cl)c(Cl)c2)[C@H](C)CN([C@H](C)CO)C(=O)c2cc(NS(=O)(=O)c3cccs3)ccc2O1`, inactive: 1.05.
Take `CCOC(=O)c1cc2c(c(-c3cccc(Br)c3)n1)[C@@H](CCO[Si](C)(C)C(C)(C)C)N([S@](=O)C(C)(C)C)C2`: the relative growth was inactive: 1.04.
The same measure for `COc1ccc2c3c([nH]c2c1)[C@H](CO)N(C[C@]13CCN(CC1)Cc1ccccc1F)S(=O)(=O)c1cn(cn1)C`: inactive: 1.03; for `Cc1ccc(S(=O)(=O)Nc2ccc3c(c2)C(=O)N([C@@H](C)CO)C[C@H](C)[C@H](CN(C)Cc2ccc4c(c2)OCO4)OCCCC[C@@H](C)O3)cc1`: inactive: 0.981.
Regarding `C[C@@H]1CN([C@@H](C)CO)S(=O)(=O)c2ccc(C#C[C@@H](C)O)cc2O[C@@H]1CN(C)C(=O)c1ccccc1`, the relative growth was inactive: 0.981.
Regarding `C[C@@H]1CN([C@@H](C)CO)C(=O)c2cccc(NS(=O)(=O)c3cccs3)c2O[C@@H]1CN(C)Cc1ccncc1`, the relative growth is inactive: 0.97.
For the compound `Cc1ccc(S(=O)(=O)Nc2cccc3c2O[C@@H](CN(C)S(=O)(=O)c2cccs2)[C@H](C)CN([C@@H](C)CO)C3=O)cc1`, the relative growth was inactive: 1.01.
For `C[C@@H]1CCCCO[C@@H](CN(C)C(=O)Nc2cccc3ccccc23)[C@H](C)CN([C@@H](C)CO)C(=O)c2cc(NC(=O)CCC(F)(F)F)ccc2O1` the value was inactive: 1.
